± gives the standard deviation of the averaged measurements. This is one part of the list.

These results are taken from the supplement of paper PMC11417369.

The assay relates to PfAP2-I AP2 domain 3 (GST-tagged). Put plainly: gcPBM binding intensity (ln(normalized median fluorescence intensity)); higher = stronger DNA binding. The procedure, abridged: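 Each value is the highest Masliner-normalised natural-log median intensity across replicate spots of either orientation of a probe. The probes were primer-extended double-stranded 36-bp intergenic genomic sequences on an Agilent 4 × 180k array, alongside negative controls, exposed for 1 h to GST-tagged P. falciparum DNA-binding domains expressed in E. coli. Bound protein was picked up with Alexa488 anti-GST antibody and scanned at 488 nm.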
“AAAAAAAAAAAAAAGAGTACACAGACGTTCAAAGGT [XGTACX_site7566]”: the “gcPBM binding intensity (ln)” value is 8.47 ± 0.31.
The same measure for “TGTATGTATTAATGCGCACACAAAAAATAACAATAT [CACACA_site1848]”: 9.29 ± 0.19.
The same measure for “ATATATATATATAAATGTACATTGTGTGTTGTAAGA [XGTACX_site2434]”: 9.29 ± 0.47.
The same measure for “ATAAAAAAAAAATAATGTACTTATATATATATATAT [XGTACX_site8282]”: 9.45 ± 0.29; for “ATATAGATATATAGTAGTACTTGTTATATAAGATAA [XGTACX_site6336]”: 7.67 ± 0.47; for “ACAGAGCTTTAAATACGTACATAATATATATTAAAT [XGTACX_site8221]”: 7.76 ± 0.46.
Turning to “TATTGATTTAGAAACACACACTCGAAGATGTTTAAC [CACACA_site1129]”, the “gcPBM binding intensity (ln)” value was 7.58 ± 0.53.
As for “TTTAAAAAATGTTATATTATATAATTAAAAAAAAAA [CACACA_negctrl_site1509]”, the figure is 7.43 ± 0.79.
The same measure for GTATATTATTTACGTTTGCACTTCATTTTATAGTAA: 9.18 ± 0.35.
As for “TATTAATTGTGGCACCTTGTATGTTTACAATGACAT [CACACA_negctrl_site1383]”, the figure is 10.34 ± 0.078; as for “TTCTTCAAAAAAAATTGTACACATCTCTCAAATGTT [XGTACX_site2952]”, 7.67 ± 0.53; as for “AATGGATGAATGAATGTATGAATGAATGTATGAATG [CACACA_negctrl_site91]”, 7.88 ± 0.84.
As for “ATATATATAAAACACACACACAAAAAAAATAAAGAC [CACACA_site117]”, the “gcPBM binding intensity (ln)” value is 8.6 ± 0.57.
The same measure for “TTTTGTAGTTTATAAATAAAAGAGAATATGGTGCTT [CACACA_negctrl_site413]”: 7.93 ± 0.57.
The same measure for “TAAATATTATTTCATAGTACTTTTATTATTGATATA [XGTACX_site5566]”: 7.76 ± 0.14.
The same measure for “TAAATAAATATATATACACACATATATATATATATA [CACACA_site598]”: 9.23 ± 0.48.
As to “CAATTTATAAAGAAAACACACATATACATATATACA [CACACA_site1260]”, the “gcPBM binding intensity (ln)” value was 7.6 ± 0.4.
As for “TATTAAACAAATTATGCAAAAATAAATCAATATGTT [CACACA_negctrl_site171]”, the figure is 8.12 ± 0.64; as for “TTAGGAAGCTCACAAAATAAAGTGAAAAGAAGAAAA [XGTACX_negctrl_site572]”, 7.62 ± 0.87.
The same measure for “ATTATTTTATAATTCACACATAAATAAAAAAAAAAT [CACACA_site5290]”: 7.76 ± 0.32; for “TGATTTCCAGGTTATTGTACAAAATTAATTTTCGAA [XGTACX_site2491]”: 7.86 ± 0.59.
As for “AAAAGTTTTATTTAAATGAATTAATCTTTACTATAT [CACACA_negctrl_site282]”, the figure is 7.23 ± 0.54; as for “TATTTTCATTTGCGCGCACACAATAATAATTTTTGG [CACACA_site3525]”, 8.59 ± 0.45.
With “TAAAAAATATAAATGACACACACTTAAAAACAAAGA [CACACA_site671]”, the “gcPBM binding intensity (ln)” value was 7.86 ± 0.72.
For “TATAAATTAATGACATGTACATAAAAGTATAGATGT [XGTACX_site6534]”, the “gcPBM binding intensity (ln)” value came out at 7.96 ± 0.45.
The same measure for “AACAATTATTTATCTACACACTTTTATGTTATTTAC [CACACA_site9]”: 7.88 ± 0.67; for “AAATATACAAAATATACACACATATTTATTTATGAT [CACACA_site2051]”: 7.44 ± 0.59.
As for “AAAATTAAAATATATACACACATATATATATTAAAT [CACACA_site4419]”, the figure is 7.42 ± 0.39; as for “TCTTCCCAAATAAAGTGTACATAAATACGAATAATA [XGTACX_site4363]”, 7.91 ± 0.36.
Take “TAATGTATATGTAAATGTACATGTATATTATTTAAA [XGTACX_site1840]”: the “gcPBM binding intensity (ln)” value was 7.64 ± 0.24.
The same measure for “AAGATATTTGTATAATGTACAAAACTATATAAAACT [XGTACX_site1433]”: 7.79 ± 0.69; for “ATCAAAGATAAATTTACACACATATATATATATATA [CACACA_site2969]”: 9.3 ± 0.26; for “TTGTTCCACAAAAATTTAGTCAAAAAAAAATAAAAA [TGCATGCA_negctrl_site546]”: 7.46 ± 0.61.
As to “AATGAATAACAATACTATATGATTTTTAATACATTA [XGTACX_negctrl_site42]”, the “gcPBM binding intensity (ln)” value was determined as 7.13 ± 0.52.
The same measure for “ACAAAAAAAAAAATAACACACATGGGGGTGTATAAA [CACACA_site3797]”: 8.68 ± 0.11.
As for “TTAAATTTTTTTTTGTGTACGAAAAACAGAAAAAAT [XGTACX_site8625]”, the figure is 8.18 ± 0.25; as for “ATATATATATACATATGTACATATAAAATAATTTTG [XGTACX_site3731]”, 9.03 ± 0.25; as for “TATGTGTATGGGAATGCATGTAAATATGTACATATA [TGCATGCA_site737]”, 8.28 ± 0.12.
As for “TCTATTCATTTTGAAGGTACACATTTCTTTATAATA [XGTACX_site6218]”, the figure is 7.68 ± 0.49.
For the sequence “GTATTAGATAAATACACACACAAGCATATATTTTTA [CACACA_site3431]”, the “gcPBM binding intensity (ln)” value came out at 7.61 ± 0.52.
“AATAAATATATAAATACACACAAACATACATATATA [CACACA_site9340]”: the “gcPBM binding intensity (ln)” value was 7.71 ± 0.36.
As for “AATATATCATTATATAAACACACAATATGTTTTTTA [CACACA_site9260]”, the figure is 7.51 ± 0.54.
“AAAAATATATATATATATATATATATAAGGAATATA [XGTACX_negctrl_site450]”: the “gcPBM binding intensity (ln)” value came out at 8.29 ± 0.27.
As for “AATACAATATAGTGAAAAATAATTAAATACAATAAG [XGTACX_negctrl_site161]”, the figure is 7.87 ± 0.45.
For the sequence “CGTAAACAATTATGATGTACATAAAATATATATATA [XGTACX_site2705]”, the “gcPBM binding intensity (ln)” value came to 8.93 ± 0.014.
The same measure for “TTATTTACATCAAGTACATGCAGTAAAAAAAAAAAA [TGCATGCA_site351]”: 8.34 ± 0.5.
For “CACCAATTCCTATGCACACACATCTGCATATTATAT [CACACA_site5049]”, the “gcPBM binding intensity (ln)” value was 9.14 ± 0.23.
The same measure for “ACAAAACGAACATACGCATGTGTGTACATTAATATA [TGCATGCA_site922]”: 8.14 ± 0.099; for “ATGAACAGTTCATGTTGTACAATCTCCATTTTTTAC [XGTACX_site3933]”: 7.98 ± 0.65.
The same measure for “ATATAATATATGTATACACACATATTATATAATATT [CACACA_site3699]”: 7.56 ± 0.54; for “CAATATAAAAAACACACACACAAACATATATTTATA [CACACA_site3703]”: 7.67 ± 0.36; for “TGTCGGCTTAGATTAGTGCACTGAAAAATGAAGTAT [GTGCAC_site9919]”: 11.8 ± 0.28.
As for “TATTTATATAAAAATACACACATGAATGGATATATA [CACACA_site6335]”, the figure is 7.57 ± 0.45; as for “GTAACATACACATATACACACACACCGATATACATA [CACACA_site8278]”, 8.12 ± 0.45.
Take “AATATAGTTCAATATACACACCCCTTTATTCATTTT [CACACA_site3625]”: the “gcPBM binding intensity (ln)” value came out at 7.88 ± 0.73.
As for “ATTAATTAAGGCACATGTACAAAATATTTTTTATAA [XGTACX_site1964]”, the figure is 9.95 ± 0.45.
As for “TATACAATCTATATAACACACATATTTATATAAAAT [CACACA_site1797]”, the figure is 7.72 ± 0.38.
The same measure for “ATTTAACTAAAGAAGGCACACGTGTTTAAAAAAAAA [CACACA_site5241]”: 8.18 ± 0.79.
On to “CATTTATATATATACACACACACAAAAAAAAAAAAA [CACACA_site2645]”, for which the “gcPBM binding intensity (ln)” value was 8.13 ± 0.49.
As for “AATATTATATTTTATTGTACTAATAAAAATATATGC [XGTACX_site5435]”, the figure is 7.79 ± 0.2; as for “GACGTTATGATACACATACACACAGGGATAAAAAAT [CACACA_site2882]”, 8.06 ± 0.53.
The same measure for “TATATATATATATATGCATGTACATATATTTGTTAT [TGCATGCA_site379]”: 9.45 ± 0.14; for “TTTTTTTTTTTTTTTTGTACTTAAAAATTTATATAA [XGTACX_site7718]”: 8.03 ± 0.64.
As for “ATAATATGAAATATAACACACATATATAAAAACATT [CACACA_site866]”, the figure is 7.92 ± 0.57; as for “TATTTTTTTTTTGGGTGTACCTTTTATATATATTGT [XGTACX_site5036]”, 7.97 ± 0.49; as for “TATACACATTTTTATACACACTTGTTTTATAAAACG [CACACA_site6480]”, 8.06 ± 0.45.
“CATTTCGAAAAAAAATGTACTTATTATATTTATATA [XGTACX_site6752]”: the “gcPBM binding intensity (ln)” value was determined as 7.51 ± 0.31.
As for “TTATCTTACATAAATTATAACAATAATATGTGTATA [XGTACX_negctrl_site379]”, the figure is 7.26 ± 0.33; as for “TGTATATATTATAAAAGTACATAATATTCTTAGATA [XGTACX_site5623]”, 7.48 ± 0.23; as for “ACATCTCTTATATATTCACACACATATATATAATTA [CACACA_site8424]”, 8.41 ± 0.52.
For the sequence “GCACATCTATATGAAACACACATGGAAACATCTCTT [CACACA_site7793]”, the “gcPBM binding intensity (ln)” value was 7.84 ± 0.64.
As for “TTTTTTTTTTAATTCGCACACTGTCTTCATGCAATT [CACACA_site4882]”, the figure is 8.79 ± 0.64; as for “TTAAAAAATTTTTAAGCACACACATAGATAATATAT [CACACA_site8440]”, 8.76 ± 0.32; as for “AGCATTAAAAATGGAATGGAATTAAGCTATATATTA [CACACA_negctrl_site1571]”, 7.47 ± 0.61.
As for “GAAACTTCAAGAAATGCACACAATAAAATAAATAAA [CACACA_site1549]”, the figure is 8.91 ± 0.14; as for “ATAGAATATTATATTACACACAGAATAATAAAAAAT [CACACA_site86]”, 7.75 ± 0.58.
As for “AGTATATATTATATATATATATATATATTATATATG [TGCATGCA_negctrl_site99]”, the figure is 7.8 ± 0.47; as for “TTTAATCATATGTTATATAATAAGCCCCCCCCCCAA [CACACA_negctrl_site486]”, 11.1 ± 0.63; as for “AAAAAAATTAAACATGAAGAATAAGGAACAAAAAAA [CACACA_negctrl_site1607]”, 7.73 ± 0.69.
Regarding “ATTTAAGTAGTACATACACACACATATACAAAAAGA [CACACA_site9317]”, the “gcPBM binding intensity (ln)” value was found to be 8.36 ± 0.28.
For “ATGGGACATATATATACACACATATATATATATATA [CACACA_site1202]”, the “gcPBM binding intensity (ln)” value was 9.22 ± 0.73.
The same measure for “TTTCGATTAAAAATTGTACAATATAAGGAGCACACA [GTGCAC_negctrl_site476]”: 8.51 ± 0.32.
The same measure for “ACTGTAACAATCATGGGTACAAATAAAATAATATCT [XGTACX_site99]”: 7.98 ± 0.57; for “ATGAAAATTATAAAGTGTACATATAGAAACATTTAC [XGTACX_site8047]”: 7.91 ± 0.56; for “AACCACAGACATATAACACACATATACAATATATAT [CACACA_site5142]”: 8.14 ± 0.39.
The same measure for CTTTTTTTGACCTTAGTGCAAATAACTATATATTAT: 10.5 ± 0.41.
“TAAAAAAAAAAATGAACATGCAACAATTGTGATGAA [TGCATGCA_site332]”: the “gcPBM binding intensity (ln)” value amounted to 7.55 ± 0.83.
The same measure for “TTTTGTCTTATATGTTGTACAACGTAAACAAAAAAA [XGTACX_site4412]”: 8.07 ± 0.4.
